Measurements reported in the supplement of paper PMC12355420.
Where a name gives a salt, the structure may show the parent alone. The list shows a part of the results. Most values come without repeats; read them as rough.

System: HeLa VPS33A reporter cells
Assay: relative cell viability (CellMask signal) vs DMSO (fraction of DMSO); HeLa model of a glycosaminoglycan (GAG) storage disease; KI is knock-in and KO knock-out; SDC1 is syndecan 1; higher = less cytotoxic
Settings: 50 µM; 24 h
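Further: primary screen of an FDA-approved drug library in HeLa reporter cells in 96-well format, CellMask signal normalized to DMSO-treated wells set as 1, under 0.5 deemed highly cytotoxic.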

SMILES	relative cell viability
C[C@H]1[C@H](OC(=O)CCC(=O)O)O[C@@H]2O[C@@]3(C)CC[C@H]4[C@H](C)CC[C@@H]1[C@@]24OO3 [Artesunate]	0.0224
CC(C)(C)c1cc(C(C)(C)C)c(NC(=O)c2c[nH]c3ccccc3c2=O)cc1O [Ivacaftor (VX-770)]	0.00469
CO[C@H]1/C=C/O[C@@]2(C)Oc3c(C)c(O)c4c(O)c(c(/C=N/N5CCN(C6CCCC6)CC5)c(O)c4c3C2=O)NC(=O)/C(C)=C\C=C\[C@H](C)[C@H](O)[C@@H](C)[C@@H](O)[C@@H](C)[C@H](OC(C)=O)[C@@H]1C [Rifapentine]	0.18
CC1CC(OC(=O)C(O)c2ccccc2)CC(C)(C)C1 (configuration not stated) [Cyclandelate]	0.0181
Cc1ccc(NC(=O)c2ccc(CN3CCN(C)CC3)cc2)cc1Nc1nc(-c2cccnc2)cs1 [Masitinib (AB1010)]	0.00693
NC(=O)c1cccc2cn(-c3ccc([C@@H]4CCCNC4)cc3)nc12	0.00456
COC(=O)[C@]12CCC(C)(C)C[C@H]1[C@H]1C(=O)C=C3[C@@]4(C)C=C(C#N)C(=O)C(C)(C)[C@@H]4CC[C@@]3(C)[C@]1(C)CC2 [Bardoxolone methyl]	0.00411
Cc1ccc(Sc2ccccc2N2CCNCC2)c(C)c1 [Vortioxetine]	0.00238
CCc1c(Cl)c(O)c(Cl)c(O)c1C(=O)O[C@H]1[C@H](O)[C@H](OC)[C@H](OC/C2=C\C=C\C[C@H](O)/C(C)=C/[C@H](CC)[C@@H](O[C@@H]3OC(C)(C)[C@@H](OC(=O)C(C)C)[C@H](O)[C@@H]3O)/C(C)=C/C(C)=C/C[C@@H]([C@@H](C)O)OC2=O)O[C@@H]1C [Fidaxomicin]	0.00887
COC1=C(OC)C(=O)C(CCCCCCCCCCO)=C(C)C1=O [Idebenone]	0.00522
CCCCCCCCCCCC1=C(O)C(=O)C=C(O)C1=O [Embelin]	0.00497
O=C(Nc1ccccc1)OCC(CN1CCCCC1)OC(=O)Nc1ccccc1 (configuration not stated) [Diperodon HCl]	0.116
CCCNCC(O)COc1ccccc1C(=O)CCc1ccccc1 (configuration not stated) [Propafenone HCl]	0.0438
O=C(/C=C\n1cnc(-c2cc(C(F)(F)F)cc(C(F)(F)F)c2)n1)NNc1cnccn1	0.036
CC/C=C\C/C=C\C/C=C\C/C=C\C/C=C\C/C=C\CCC(=O)O [Docosahexaenoic Acid]	0.325
CC(C)(O)c1ccccc1CC[C@@H](SCC1(CC(=O)O)CC1)c1cccc(/C=C/c2ccc3ccc(Cl)cc3n2)c1 [Montelukast Sodium]	0.00489

SMILES	relative cell viability
COc1ccccc1OCCNCC(O)COc1cccc2[nH]c3ccccc3c12 (configuration not stated) [Carvedilol]	0.00851
CN1CCN(c2ccc3nc(-c4c(N)c5c(F)cccc5[nH]c4=O)[nH]c3c2)CC1 [Dovitinib Dilactic acid]	0.00657
CC1=C(/C=C/C(C)=C/C=C/C(C)=C/C(=O)O)C(C)(C)CCC1 [Tretinoin (Aberela)]	0.204
CNCCCC12CCC(c3ccccc31)c1ccccc12 [Maprotiline HCl]	0.0208
C=C1C(=O)O[C@@H]2/C=C(\C)CC/C=C(\C)CC[C@@H]12 [Costunolide*]	0.00348
OCc1cc([C@@H](O)CNCCCCCCOCCOCc2c(Cl)cccc2Cl)ccc1O [Vilanterol trifenatate]	0.00953
Cc1ccc(Sc2ccccc2N2CCNCC2)c(C)c1	0.0029
CC(C)c1cc(C(=O)N2Cc3ccc(CN4CCN(C)CC4)cc3C2)c(O)cc1O	0.0119
C[C@@H](O[C@H]1OCCN(Cc2n[nH]c(=O)[nH]2)[C@H]1c1ccc(F)cc1)c1cc(C(F)(F)F)cc(C(F)(F)F)c1 [Aprepitant]	0.0337
O=C(OCCOCCO)c1ccccc1Nc1cccc(C(F)(F)F)c1 [Etofenamate]	0.00335
CC(=O)O[C@@]12CO[C@@H]1C[C@H](O)[C@@]1(C)C(=O)[C@H](O)C3=C(C)[C@@H](OC(=O)[C@H](O)[C@@H](NC(=O)OC(C)(C)C)c4ccccc4)C[C@@](O)([C@@H](OC(=O)c4ccccc4)[C@H]21)C3(C)C [Docetaxel]	0.12
C[C@]12CC[C@H](O)CC1=CC[C@@H]1[C@@H]2CC[C@]2(C)C(c3cccnc3)=CC[C@@H]12 [Abiraterone]	0.0199
CN(C)CCN1C(=O)c2cccc3cc(N)cc(c23)C1=O [Amonafide]	0.0111
CCS(=O)(=O)N1CC(CC#N)(n2cc(-c3ncnc4[nH]ccc34)cn2)C1	0.267
CC(C)Nc1cc(-c2c[nH]c(C(=O)N[C@H](CO)c3cccc(Cl)c3)c2)c(Cl)cn1	0.00659
C[C@@H](NCCCc1cccc(C(F)(F)F)c1)c1cccc2ccccc12 [Cinacalcet]	0.00345
